Values joined by “and” are separate entries in the source; they are usually repeats but may differ in a detail not shown here. Identical values can stand only once. The campaign covered roughly 110,000 compounds. About 230 (0.21%) showed an effect of 50% or more. The list shows a part of the results.
Each compound was assayed against DPAP1 (Plasmodium falciparum, UniProt Q8IIJ9) (assay: primary screen, percent inhibition; read by cleavage of a fluorogenic dipeptide substrate; higher = more effect of the substance).
Parameters: species or system P. falciparum D10 trophozoite lysates; single well
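Also: 30 min substrate incubation versus DMSO and 10 µM JCP410 controls.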

DPAP1, sequence (Q8IIJ9 whole entry, looked up): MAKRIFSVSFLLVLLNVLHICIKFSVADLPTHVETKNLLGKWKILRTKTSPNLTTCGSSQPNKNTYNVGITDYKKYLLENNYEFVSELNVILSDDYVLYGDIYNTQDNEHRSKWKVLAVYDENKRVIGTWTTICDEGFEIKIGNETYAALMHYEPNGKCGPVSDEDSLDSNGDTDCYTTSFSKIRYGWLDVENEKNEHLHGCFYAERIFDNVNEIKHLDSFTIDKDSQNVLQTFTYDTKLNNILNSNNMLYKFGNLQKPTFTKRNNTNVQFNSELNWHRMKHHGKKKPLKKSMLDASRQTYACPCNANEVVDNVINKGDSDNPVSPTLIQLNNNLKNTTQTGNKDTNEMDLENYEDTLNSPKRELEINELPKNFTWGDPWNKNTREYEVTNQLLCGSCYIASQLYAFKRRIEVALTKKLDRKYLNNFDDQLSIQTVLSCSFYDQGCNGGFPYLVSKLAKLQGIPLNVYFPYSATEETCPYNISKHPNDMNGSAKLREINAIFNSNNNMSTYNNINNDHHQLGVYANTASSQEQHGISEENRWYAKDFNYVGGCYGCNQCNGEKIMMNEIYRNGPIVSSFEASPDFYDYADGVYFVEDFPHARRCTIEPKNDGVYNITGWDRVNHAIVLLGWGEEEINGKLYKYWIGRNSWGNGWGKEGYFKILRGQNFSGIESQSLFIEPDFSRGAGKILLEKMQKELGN

Row | SMILES | % Inhibition @ 10 uM
1 | CCc1ccccc1-n1nnc(-c2nc(-c3ccccc3)no2)c1N | -9.7%
2 | Cc1cc(O)nc(SCCOc2ccc(C)c(C)c2)n1 | 0.512%
3 | CN(C(=O)c1ccc([N+](=O)[O-])cc1)c1ccccc1 | -3.04%
4 | CCO/C(O)=C1\C(C)=Nc2nc(-c3cc(OC)cc(OC)c3)nn2C1c1ccc(OC)cc1 (stereo not shown) | 0.0842%
5 | COc1ccc(NCc2ccc(OC)c(C)c2)cc1 | -3.8%
6 | Cc1noc2c1/C(=N\O)CC(c1ccccc1)C2 (stereo not shown) | 0.774%
7 | O=C1NC(=S)N(c2cccc(Cl)c2)C(=O)/C1=C/c1ccc(Cl)cc1 | 12%
8 | CCc1ccc(N2C(=O)NC(=O)/C(=C(/C)O)C2=O)cc1 | -8.29%
9 | CC(=O)Nc1ccc(C)c(NC(=O)c2ccc(Cl)cc2Cl)c1 | -4.61%
10 | COc1cccc(/C=C/c2ccncc2)c1OC | 4.16% and 14%
11 | CC(=O)c1c(O)ccc2c(C)cc(=O)oc12 | 1.7%
12 | Cc1cccc(CCNc2ncnc3onc(-c4ccc(F)cc4)c23)c1 | 1.57%
13 | CC(C)Cn1c(=O)c2sccc2n2c(CCCC(=O)NCc3ccccc3)nnc12 | -2.15%
14 | O=C(NCCc1ccccc1)C1CC(=O)N(C2CCCCCC2)C1 (stereo not shown) | 14.9%
15 | COc1ccc(-c2csc(/C(C#N)=C/c3ccco3)n2)cc1 | -0.771%
16 | O=C(c1ccc(Cl)cc1)C(CN1CCCCC1)c1ccccc1 (stereo not shown) | 3.05%
17 | COc1ccc(/C=C2\SC(=O)N(CC(=O)Nc3ccc(C)cc3)C2=O)cc1C | -0.598%
18 | CC1(C)CC(NCc2ccco2)CCO1 (stereo not shown) | -6.95%
19 | Nc1ccc(-c2nc3cc(N)ccc3n2CCO)cc1 | -5.41%
20 | CCOc1ccc(C2C3=C(O)CC(C)(C)CC3=NC(C)=C2C(=O)Nc2ccccn2)cc1 (stereo not shown) | -0.305%
21 | CN(C)S(=O)(=O)c1ccc(C(=O)Nc2c3c(nn2-c2cccc(Cl)c2)CSC3)cc1 | 3.06%
22 | O=C(CSc1nnc2scc(-c3ccccc3)n12)Nc1nc(-c2ccccc2)ns1 | -0.0626%

Row | SMILES | % Inhibition @ 10 uM
23 | CCOC(=O)c1c(C)n(C)c2ccc(OCC(O)CNC(C)c3ccccc3)cc12 (stereo not shown) | -6.94%
24 | Clc1cccc(OCCCCCCN2CCCCC2)c1 | -2.12%
25 | CCc1cc(C)cc(OCCOc2cccc(C=C3C(=O)N(C)C(=O)N(C)C3=O)c2)c1 | -4.01%
26 | COc1ccc(C(=O)CC2(O)C(=O)N(CC(N)=O)c3ccccc32)cc1 (stereo not shown) | -10.2%
27 | Cc1ccc(S(=O)(=O)N2C(=O)CCC2C(=O)NCCOc2ccccc2C)cc1 (stereo not shown) | 4.19%
28 | Cc1ccc(C)c(NC(=O)c2ccc(Cn3nc(C)c(Cl)c3C)o2)c1 | 0.674%
29 | COc1ccccc1N1CCN(C(=O)c2ccc(N(C)C)cc2)CC1 | -2.74%
30 | Cc1cccc(CCNC(=O)[C@H](Cc2ccccc2)N2Cc3ccccc3C2=O)c1 | 2.93%
31 | Cc1nn(CC(=O)N2CCC(C(N)=O)CC2)c(=O)c2nn(-c3ccccc3)c(C)c12 | -3.05%
32 | CC1CCN(S(=O)(=O)c2ccc3c(ccn3CC(=O)N3CCCCCC3)c2)CC1 | -5.15%
33 | O=C1CCCC2=C1C(c1cccc([N+](=O)[O-])c1)Nc1ccc3ccccc3c12 (stereo not shown) | 5.64%
34 | Cc1cc(C)c2c(N)c(C(=O)NCc3ccccc3)sc2n1 | 1.72%
35 | CCOc1ccc(NC2=C(Cl)C(=O)N(c3ccc(C)cc3)C2=O)cc1 | -1.84%
36 | O=C(c1ccc2c(c1)C(=O)N(Cc1ccco1)C2=O)N1CCOCC1 | 0.66%
37 | CC1=C(C(=O)N2CCCCC2)C(c2cccc(O)c2)C2=C(O)CCCC2=N1 (stereo not shown) | 3.45%
38 | O=C(Nc1ccc(NC(=O)c2ccco2)cc1)c1ccccc1 | 1.34%
39 | CCCCCCSc1nc(O)cc(O)n1 | -1.42%
40 | COCCNCC(=O)NC12CC3CC(CC(C3)C1)C2 | 1.12%
41 | O=C(Nc1nccs1)c1ccc(-c2cccc(C(F)(F)F)c2)o1 | -0.132%
42 | NS(=O)(=O)c1ccc(NC(=O)c2ccc(Cl)cc2)cc1 | 3.01%
43 | CCNC(=S)N(CCc1c(C)[nH]c2ccc(OC)cc12)Cc1ccncc1 | 5.4%
44 | COc1cc(C2Nc3ccccc3N=C3CC(c4ccc5c(c4)OCO5)CC(O)=C32)cc(OC)c1O (stereo not shown) | -9.12%

Row | SMILES | % Inhibition @ 10 uM
45 | Nc1c(C(=O)C2CC2)sc2nc(-c3ccc(F)cc3)cc(-c3ccccc3)c12 | -1.66%
46 | OC(COC12CC3CC(CC(C3)C1)C2)CN1CCOCC1 (stereo not shown) | -8.75%
47 | COc1ccc(-c2noc(N3CCCC(C(=O)NC4CCCc5ccccc54)C3)n2)cc1 (stereo not shown) | 3.44%
48 | O=C(CCn1nc(-c2ccc(Cl)cc2)ccc1=O)NC1CCCC1 | 4.81%
49 | CC(=O)N[C@@H](CC1CCCCC1)C(=O)N[C@@H](CCc1ccccc1)C(=O)COCc1ccccc1 | -3.49%
50 | CCN(Cc1ccccc1)C(=O)c1oc2ccc(S(=O)(=O)N3CCOCC3)cc2c1C | -0.519%
51 | CCc1ccc(-c2cn3c4ccccc4nc3n2CCO)cc1 | 3.15%
52 | Cn1ccnc1SCC(=O)NCCc1ccccc1 | 0.503%
53 | COc1cccc(C2Nc3ccccc3N=C3CC(C)(C)CC(O)=C32)c1OC (stereo not shown) | -0.759%
54 | O=C(COc1ccccc1Cl)Nc1ccc(S(=O)(=O)N2CCCC2)cc1 | -0.251%
55 | O=C(CN1CCN(c2ccccc2)CC1)Nc1c2c(nc3c1CCC3)CCCC2 | -5.13%
56 | CCOC(=O)c1c(C)oc2ncnc(NC3CCN(C(=O)OCC)CC3)c12 | 3.54%
57 | CN(C)c1ccc(-c2ncnn2-c2ccccc2)cc1 | 3.18%
58 | CCOc1ccccc1-c1nc(-c2cccc(OC)c2)no1 | -0.671%
59 | CCn1cnc2sc(C)c(-c3ccc(Br)cc3)c2c1=O | -2.46%
60 | c1ccc2[nH]c(SCc3cn4ccsc4n3)nc2c1 | -1.72%
61 | C=CCN1CC(c2nc3ccccc3n2Cc2ccccc2F)CC1=O (stereo not shown) | -1.71%
62 | Cc1cc2nc(O)c(O)nc2cc1S(=O)(=O)NCCC(C)C | 7.8%
63 | C=CCNC(=O)Cc1c(O)nc2ccccc2c1O | 0.219%
64 | CC(=O)c1cc(-c2ccc(F)cc2)n(CCC(=O)NC(C)c2ccccc2)c1C (stereo not shown) | -3.64%
